Over roughly 13,000 compounds, “IFI” has its median near 4; the highest 2% begin near 17. The list shows a part of the results.

The nature of this test: GSK_TCMDC: Inhibition Frequency Index (IFI). The number of non-kinase HTS assays where a compound showed > 50 % inhibition, expressed as a percentage of the number of such assays in which the compound was tested (-0 is zero). The format is functional.
The compound `CC(C)NCc1ccc(-c2cccc(-c3nc4cc(F)ccc4[nH]3)c2)cc1` came in with an IFI of 3.77%.
For the compound `CCOC(=O)C1=C(C)N=c2sc(=Cc3cc(Cl)ccc3O)c(=O)n2C1c1ccc(OC)cc1` (centres undefined), the IFI was 2.84%.
In turn, `COc1cccc(NC(=O)c2nc(N3CCN(c4ccncc4)CC3)ccc2Cl)c1` returned an IFI of 5.71%.
`N#Cc1ccc(C2CCN(CC[C@H](N)Cc3ccc(Cl)s3)CC2)cc1` displayed an IFI of 12.5%.
`Cc1nc2ccccc2c(=O)n1/N=C/c1ccccc1[N+](=O)[O-]` showed an IFI of 4.23%.
For the compound `c1ccc(CN2CCC(NCc3ccccc3-c3cccc(CNCc4ccc5c(c4)OCO5)c3)CC2)cc1`, the IFI is 10.8%.
The compound `COc1ccc2nccc([C@@H](O)CN3CCC(NCc4ccc5cccc(O)c5n4)CC3)c2n1` showed an IFI of 2.94%.
`CCC(=O)N1CCc2cc(Br)cc(S(=O)(=O)N3CC(C)CC(C)C3)c21` (centres undefined) yielded an IFI of 0%.
To `Cc1cc(N[C@@H](CC(C)C)C(=O)Nc2ccccc2)nc(NCCc2ccccc2)n1` belongs 11.4%.
To `O=C(NC1CCN(Cc2ccccc2O)C1)c1cccc(C(F)(F)F)c1` (centres undefined) belongs 2.13%; to `COc1ccc(-c2cccc(NC(=O)c3ccccc3)c2)cc1CN1CCCN(C)CC1`, 5.83%.
The compound `COc1ccc(Cl)cc1NC(=O)Nc1ccnc2ccccc12` came in with an IFI of 2.17%.
In the case of `Cc1cc(N/N=C/c2cccc([N+](=O)[O-])c2)c2ccccc2n1`, the IFI worked out at 1.52%.
The compound `Cc1ccc(CNC(=O)[C@H](CCCN)Nc2cc(C)nc(NCC3CCCCC3)n2)cc1` showed an IFI of 4.88%.
`COc1ccc(CNCc2cccc(-c3ccc(-c4nc5cccc(C)c5[nH]4)s3)c2)cc1` yielded an IFI of 10.4%.
Regarding `COc1cccc(NC(=O)c2ccc(NCCCN3CC(C)CC(C)C3)c([N+](=O)[O-])c2)c1` (centres undefined), the IFI amounted to 3.7%.
`c1ccc2[nH]c(-c3ccc(-c4ccc(CN5CCN(CCN6CCOCC6)CC5)cc4)cc3)nc2c1` came in with an IFI of 4.23%.
Compound `CCCCN1CCN(c2cc(NS(=O)(=O)c3cccc(C(=O)Nc4ccc(C(F)(F)F)cc4)c3)ccc2OC)CC1` displayed an IFI of 3.55%.
In turn, `CC1(C)NC(N)=NC(=N)N1OCCCOc1cccc(Cl)c1` displayed an IFI of 4.2%.
Regarding `O=C(NCCN1CCCC1)c1ccc(-c2ccc(-c3nc4ccccc4[nH]3)s2)cc1`, the IFI turned out to be 4.55%.
On to `COc1ccc(NC(=O)c2cn(-c3ccc(C(C)(C)C)cc3)nc2C)cc1N1CCN(C)CC1`, for which the IFI came out at 8.93%.
The compound `CC(O)C1CCCCN1C(=O)c1cccc(-c2ccc(-c3nc4ccccc4[nH]3)s2)c1` (centres undefined) registered an IFI of 6.6%.
As to `O=C(NCCN1CCOCC1)c1ccc(CNC(=O)c2ccc(O)c(-c3ccc(Cl)c(Cl)c3)c2)cc1`, the IFI was determined as 0.74%.
`O=C(NC1CCN(c2ccnc3cc(Cl)ccc23)C1)c1ccc(C(F)(F)F)cc1` (centres undefined): the IFI came to 12.1%.
`Nc1c2c(nc3ccc(NC(=O)CCCc4ccccc4)cc13)CCCC2` had an IFI of 8.9%.
To `Cc1ccc(C(=O)NC2CC2)cc1-c1ccc2c(cnn2S(=O)(=O)c2ccc(F)cc2)c1` belongs 2.84%; to `CC(C)c1cccc(OCC2CCN(c3ncc(C(=O)NC4CC4)cc3Cl)CC2)c1`, 2.08%; to `N#Cc1cccc(Nc2nccc(NCC(O)c3ccccc3C(F)(F)F)n2)c1` (centres undefined), 19.2%.
In turn, `COc1cc2nc(C)nc(Nc3ccc(Oc4ccccc4)cc3)c2cc1OC` came in with an IFI of 2.92%.
For `COc1ccc2nccc([C@@H](O)CN3CCC(NCc4nc5c(OCc6ccccc6)cccc5[nH]4)CC3)c2c1`, the IFI came out at 2.94%.
Compound `Cc1ccc2[nH]c(C)cc(=NN=Cc3cccc(Cl)c3)c2c1` yielded an IFI of 3.57%.
Regarding `O=C(Nc1ccc2c(c1)OCO2)NC1CCN(c2ccnc(NCc3ccc(F)cc3)n2)CC1`, the IFI came to 10.6%.
Compound `COC(=O)c1cc(C(O)CNC(C)CCc2cccc(F)c2)ccc1O` (centres undefined) returned an IFI of 1.44%.
Under `CCOc1ccc(-n2nc3c(Cl)nnc(-c4ccccc4)c3c2-c2ccccc2)cc1` stands 1.56%; under `Cn1cncc1C(=O)Nc1cccc(-c2csc(-c3nc4ccccc4[nH]3)c2)c1`, 2.78%; under `COc1ccc2nccc([C@@H](O)CN3CCC(NCCOc4cccc(C(F)(F)F)c4Cl)CC3)c2c1`, 3.65%.
`Nc1nc(N)c2cc(NS(=O)(=O)c3ccc(-c4ccccc4)cc3)ccc2n1` showed an IFI of 4.48%.
The compound `N#Cc1cccc(C(O)CN(Cc2ccccc2)Cc2ccccc2)c1` (centres undefined) returned an IFI of 2.11%.
Under `CC[C@H](N/C(=N\c1cccc(Cl)c1Cl)Nc1ccc(C#N)cc1O)c1ccccc1` stands 3.57%; under `N=c1cc(C=Cc2ccc(O)cc2)[nH]c2ccccc12`, 1.38%.
`COc1ccc(CNCc2cccc(-c3ccc(-c4nc5cccc(C)c5[nH]4)cc3)c2)cc1` registered an IFI of 10.5%.
Under `CCCNC[C@@H](O)[C@H](Cc1ccccc1)NC(=O)c1cc(NCC)cc(N2CCCCS2(=O)=O)c1` stands 0.74%; under `COc1ccc2nccc([C@@H](O)CN3CCC(NC(=O)/C=C/c4cc(F)cc(NC(C)=O)c4)CC3)c2c1`, 2.94%; under `Oc1ccc(OCc2ccccn2)cc1`, 0.71%.
Turning to `O=C(CCc1c[nH]cn1)Nc1cccc(-c2ccc(-c3nc4cc(F)ccc4[nH]3)cc2)c1`, the IFI was 3.48%.
In the case of `COCCNCc1cccc(C#Cc2cc3ncnc(Nc4ccc(OCc5cccc(F)c5)c(Cl)c4)c3s2)n1`, the IFI came to 4.41%.
`CCOC(=O)c1cn(CC)c2cc(N(C)CCc3ccc(OC)c(OC)c3)c(F)cc2c1=O`: the IFI amounted to 0.74%.
`COc1ccc(-c2nc3c4ccccc4c4ccc(I)cc4c3[nH]2)cc1` showed an IFI of 3.03%.
The compound `N=C(N)NN=CC(=O)Nc1ccc(Cl)c(C(F)(F)F)c1` displayed an IFI of 1.5%.
On to `COc1ccc2nc(C)cc(Nc3ccc(Cl)c(Cl)c3)c2c1`, for which the IFI stood at 5.47%.
To `Cc1cc(N[C@@H](CC(C)C)C(=O)NCCOc2ccccc2)nc(NCCc2ccc(F)cc2)n1` belongs 11.4%; to `O=C(NC1CCN(CCC[C@]2(c3ccc(Cl)c(Cl)c3)CCCN(C(=O)c3ccccc3)C2)CC1)c1ccc(F)cc1`, 11.2%.
For the compound `CN(c1ccc(NC(=O)Nc2cc(C(F)(F)F)ccc2F)cc1)c1ccnc(NCCN2CCCC2)n1`, the IFI is 3.88%.
In turn, `CC(C)CCN1CCC(Oc2ccc(NC(=O)c3ccccc3)cc2Cl)CC1` yielded an IFI of 4.84%.
Compound `CC(=O)c1ccc(-c2ccc(C(=O)NCCCCN3CCC(c4ccc5c(c4O)CCCC5)CC3)cc2)cc1` gave an IFI of 11.2%.
In the case of `N#Cc1ccc(N2CCN(Cc3cccc(-c4cccc(-c5nc6cc(F)ccc6[nH]5)c4)c3)CC2)nc1`, the IFI turned out to be 1.98%.
Under `Cc1cc(N(C)C)nc(Nc2ccc(NC(=O)c3ccccc3Cl)cc2)n1` stands 2.7%; under `CNc1nc(Nc2ccccc2C)nc2ccccc12`, 2.21%.
For the compound `N#Cc1cncc(-c2nc3c(N4CCC(N5CCCC5)CC4)cccc3n2CCNCc2ccccc2)c1`, the IFI was -0%.

The record behind these values is ChEMBL document CHEMBL1157539, “Thousands of chemical starting points for antimalarial lead identification” (Nature, 2010).
